Test results reported in the supplement of paper PMC3334620.
Over roughly 33,000 sequences, “E-score (-0.5 to 0.5)” has its median near -0.011; the highest 2% begin near 0.28. The list shows a part of the results.

target: T1, Gcr1 (UniProt P07261); assay: PBM E-score (8-mer binding enrichment) (E-score (-0.5 to 0.5)); higher = stronger / more preferred TF binding; most listed sequences are background and not binding sites; conditions: protein concentration: 100 nM; construct: GST-full length
T1 sequence: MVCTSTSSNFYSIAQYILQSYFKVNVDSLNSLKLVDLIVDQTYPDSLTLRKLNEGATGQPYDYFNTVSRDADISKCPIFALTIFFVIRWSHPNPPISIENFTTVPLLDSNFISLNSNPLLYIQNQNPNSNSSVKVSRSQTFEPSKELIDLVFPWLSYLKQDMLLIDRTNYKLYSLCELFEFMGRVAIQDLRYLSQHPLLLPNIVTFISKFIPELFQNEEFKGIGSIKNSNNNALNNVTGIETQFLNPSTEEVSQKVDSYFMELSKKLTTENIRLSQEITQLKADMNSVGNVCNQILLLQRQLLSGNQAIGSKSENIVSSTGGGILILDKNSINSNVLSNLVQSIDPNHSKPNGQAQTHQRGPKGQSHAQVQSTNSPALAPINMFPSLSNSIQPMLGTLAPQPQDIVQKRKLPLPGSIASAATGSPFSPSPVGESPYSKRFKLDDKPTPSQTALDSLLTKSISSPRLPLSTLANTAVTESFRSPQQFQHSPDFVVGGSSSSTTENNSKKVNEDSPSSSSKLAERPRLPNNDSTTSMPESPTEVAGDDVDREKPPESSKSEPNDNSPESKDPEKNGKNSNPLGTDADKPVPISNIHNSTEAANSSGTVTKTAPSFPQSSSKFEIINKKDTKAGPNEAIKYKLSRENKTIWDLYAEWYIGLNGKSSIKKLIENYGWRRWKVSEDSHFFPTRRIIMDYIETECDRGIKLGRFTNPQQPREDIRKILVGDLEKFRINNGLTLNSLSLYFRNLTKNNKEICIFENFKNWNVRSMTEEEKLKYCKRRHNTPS
Method in brief: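 Bound GST-tagged yeast transcription factors, applied at about 100-200 nM to double-stranded universal all-10-mer Agilent arrays, were detected with fluorescent anti-GST. Scans were normalised with masliner. A modified Wilcoxon-Mann-Whitney statistic, the E-score, was assigned to each ungapped eight-base word pooled with its reverse complement by the Universal PBM Analysis Suite.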

Row | Sequence | PBM E-score
1 | CCCTCATA | 0.0348
2 | AGTTTTCG | 0.114
3 | ATACTTAG | 0.185
4 | GGCCTGCA | -0.237
5 | GGGGCAAC | -0.0383
6 | GTTTCTGA | 0.076
7 | TGCTCGAA | -0.191
8 | ATAGAATG | -0.0971
9 | CGCGAGCA | -0.0802
10 | CCCTAAAC | -0.00244
11 | GGGAGTTA | -0.104
12 | CGGACCAA | -0.13
13 | CGGGTCTC | -0.146
14 | AACCAGAT | 0.228
15 | ACCGTAAC | -0.00149
16 | AGACTAAC | -0.215
17 | CATGCCGA | 0.041
18 | AGTTCAAC | -0.106
19 | CTCCAACA | -0.173
20 | CATACGAC | -0.104
21 | ATACTCAA | 0.0634
22 | CATTAGGC | -0.0378
23 | CAACTGTG | 0.0437
24 | AGGGGGCG | -0.0651
25 | AGTCTACA | -0.0761

Row | Sequence | PBM E-score
26 | TCTAGAAA | 0.073
27 | TAATACGA | 0.125
28 | AGACCTAA | -0.0474
29 | CAATCCCC | -0.0913
30 | ACCGTTTA | 0.0358
31 | AAGTTAAG | 0.0264
32 | ATTAGTGG | 0.388
33 | CTCTATAC | -0.0351
34 | AGCGCTAA | -0.0506
35 | TAACAAGA | 0.13
36 | AATAACCC | -0.00103
37 | CGGACTCA | -0.0589
38 | AATGTGGT | 0.0604
39 | GATATGAC | -0.0755
40 | GGACTCCC | 0.263
41 | AAATACAG | -0.0546
42 | ACGACCTA | -0.0425
43 | AGGGCTTA | -0.262
44 | ACCTTCCA | 0.127
45 | AGCGTGAG | 0.0746
46 | ATGCAGTG | -0.0911
47 | AATTCGCT | -0.0547
48 | CCTGTGGA | -0.0896
49 | GCAAGATA | 0.0546
50 | ATGCCGGC | 0.121

Row | Sequence | PBM E-score
51 | GCGACCGC | -0.0355
52 | ACGCTAAC | -0.0737
53 | AGAGGTGC | -0.0545
54 | CTAGATGA | -0.106
55 | CAGGCACA | -0.23
56 | GAGGTTTA | -0.108
57 | GTAATAAC | -0.0815
58 | GTGCTGGA | 0.221
59 | ATCGGACC | 0.068
60 | GACGCCAC | 0.195
61 | AAGGAAGC | 0.452
62 | TAGAACCA | 0.0906
63 | ACCCCGCG | -0.208
64 | CCCCCAAC | -0.261
65 | GTAGCAGA | -0.0597
66 | AGTGAGTC | 0.062
67 | ACCTCAGT | 0.141
68 | CAATTTGC | -0.0413
69 | GCCCTTCC | -0.0423
70 | ATTTAGAG | 0.131
71 | AAGCGTTA | -0.123
72 | ATATGCAG | -0.154
73 | GCTGGTCA | -0.151
74 | ATGGTGGA | -0.229
75 | CCGTTTAG | 0.0929

Row | Sequence | PBM E-score
76 | AACTGTCT | -0.0525
77 | AGCAGTGA | 0.0121
78 | AGGGTCGA | -0.161
79 | CCTCAAAG | -0.265
80 | CACGGTGG | -0.0173
81 | ACCGGGGC | 0.107
82 | GCGAAGTA | -0.109
83 | ACAATGAG | 0.154
84 | CCACGCTC | -0.128
85 | ATCGACAC | -0.189
86 | ACGGTGAC | -0.122
87 | CTTCACAA | -0.15
88 | CGAGAAAC | 0.065
89 | ATCGGGAG | -0.0827
90 | ATTCGCTG | 0.139
91 | AACCGCTT | 0.024
92 | GACCGCGC | -0.245
93 | AAGCGGAC | 0.00583
94 | CCCCCACA | 0.0968
95 | CCACGCCC | -0.202
96 | ACTTGTCT | -0.0137
97 | ATTCTCCA | 0.0563
98 | AGACGGGA | 0.0406
99 | ACTAACTC | -0.146
100 | ACGTCGAT | 0.0202

Row | Sequence | PBM E-score
101 | CAATTAGC | -0.0933
102 | CCGTCATA | -0.0107
103 | ACACTTTA | -0.0103
104 | CTGATAAG | 0.0222
105 | TACCATGA | -0.0573
106 | AGGGCCCG | 0.115
107 | GTCTTTCA | -0.125
108 | ACCAATCA | 0.094
109 | ACAGACAT | -0.144
110 | ACGTTTGC | -0.227
111 | GATAGTAC | -0.209
112 | CCTACCCC | -0.119
113 | ATCTTTCG | -0.0569
114 | AACAGTGG | 0.15
115 | CAACCTGG | -0.0727
116 | CCCCGGAA | 0.124
117 | ACATAAAA | 0.0485
118 | AAATCAGA | -0.0181
119 | CTGCCGAC | 0.0338
120 | CAGTGTAC | -0.17
121 | TAACAATA | 0.0442
122 | AATCTACG | 0.0544
123 | GTGTGAGA | -0.182
124 | GGTGCTAA | 0.255
125 | AATCAATG | 0.141

Row | Sequence | PBM E-score
126 | CTCACAAA | -0.127
127 | CGCGTGGC | -0.199
128 | AATTCAGG | 0.252
129 | ACGGCCAC | 0.0247
130 | ATGGTTGA | -0.00811
131 | CACAACTA | 0.118
132 | ACTGGAAT | 0.415
133 | CGCAGGGC | 0.0948
134 | GAGAGAAC | -0.0962
135 | GCTCCTGA | 0.0814
136 | CACAAGCG | -0.181
137 | AATGTTAG | 0.0266
138 | CGGAATAG | 0.0552
139 | TATCTTCA | -0.116
140 | CGGTTGCC | 0.0303
141 | ACTGCGGC | 0.00516
142 | CGTTCGCA | -0.183
143 | CCGGGTAG | -0.0416
144 | CGTAACGA | -0.0805
145 | CGCACCCC | 0.0174
146 | TTAGCCAA | -0.16
147 | TAACAGAA | 0.264
148 | TAAGTGTA | 0.0411
149 | ATCTCTCA | -0.057
150 | GCTGGGAA | 0.109

Row | Sequence | PBM E-score
151 | ATTATTCA | 0.0454
152 | TAAGGATA | 0.106
153 | CCTTTATC | -0.00508
154 | CTCCCAGC | -0.0348
155 | GCATACAC | -0.191
156 | AAATATAG | 0.0804
157 | GAGGCTCA | -0.188
158 | AGACTACG | -0.169
159 | CGCTTAAA | 0.0798
160 | CGACCCCG | -0.151
161 | CATTTTGA | 0.0927
162 | AACTGTCG | 0.00358
163 | AGCGACAC | -0.0398
164 | CCTTCTTC | -0.145
165 | AATCCTCC | -0.0264
166 | ACGGCTGA | -0.163
167 | AATCTTCG | 0.148
168 | CGGTGATC | 0.0363
169 | TGAACGCA | 0.0909
170 | AGCCGACA | -0.00925
171 | CTATCTCC | -0.0103
172 | GGAGATTA | 0.0216
